The structures appear in SMILES notation. Toxic doses and inconclusive results are not listed. Not every entry of the source has a single result; some have several. They are shown here; other results are not. An entry can have further records. Values given together are repeats (runs, samples, wells, individuals or studies). A tag in brackets gives the origin of a value. Letters hold for one entry only. Numbered stars: 1 amine (or outer) side, 2 acyl side, 3 side chain; on linkers, the order of the positions; unused ones are H or OH. Bridge positions count the residues as written; N and C are the ends. Square brackets hold non-standard residues; d marks the D form. Peptide text beside a SMILES is read from it. I, II: the chains in the order shown. Actinocin(1to9) = Cc1c2oc3c(C)ccc(C(=O)[*:2])c3nc-2c(C(=O)[*:1])c(N)c1=O; NMeV = CN[CH](C(=O)O)C(C)C; Aze = O=C(O)[CH]1CCN1; Sar = CNCC(=O)O

The text below walks through data of PubChem BioAssay AID192 (DTP/NCI, 2004).

The experiment deals with BDF1 mice, B16 melanoma ip, median survival T/C. Briefly: NCI In Vivo Anticancer Drug Screen. Data for tumor model B16 Melanoma (intraperitoneal) in B6D2F1 (BDF1) mice. The conditions noted are these: endpoint: median survival time, higher = longer survival. The method, then:
The antitumor activity of compounds was measured in mice bearing transplantable tumors. Survival or tumor size were measured and the results are expressed as the measurement made in the treated group (T) divided by the measurement made in the vehicle treated control group (C). The tumor model used in this assay is B16 Melanoma (intraperitoneal) in B6D2F1 (BDF1) mice

Setting [1] is: dose: 1.5 mg/kg/injection, schedule: Q01DX009 (ip), vehicle: saline.
[2] abbreviates: dose: 50.0 mg/kg/injection, schedule: Q01DX009 (ip), vehicle: saline with Tween-80.
The mark [3] stands for this setting: dose: 100.0 mg/kg/injection, schedule: Q01DX009 (ip), vehicle: saline with Tween-80.

With `O=C1NC(c2ccccc2)C(=O)N1CCN(CCCl)CCCl` (stereo not given), the T/C (dose: 12.5 mg/kg/injection, schedule: Q01DX009 (ip), vehicle: saline) is 109 % of control and 161 % of control. For the compound `COc1cccc2c1C(=O)c1c(O)c3c(c(O)c1C2=O)CC(O)(C(C)=O)CC3OC1CC(N)C(O)C(C)O1` (stereo not given), the T/C is 123 % of control and 174 % of control (dose: 2.9 mg/kg/injection, schedule: Q01DX009 (ip), vehicle: saline); 118 % of control and 175 % of control (dose: 11.7 mg/kg/injection, schedule: Q04DX003 (ip), vehicle: saline). In the case of `COc1cccc2c1C(=O)c1c(O)c3c(c(O)c1C2=O)CC(O)(C(=O)CO)CC3OC1CC(N)C(O)C(C)O1` (stereo not given), the T/C (dose: 5.8 mg/kg/injection, schedule: Q01DX009 (ip), vehicle: saline) is 123 % of control and 200 % of control; the T/C (dose: 11.5 mg/kg/injection, schedule: Q01DX001 (ip), vehicle: water) was 124 % of control and 159 % of control; the T/C (dose: 53.3 mg/kg/injection, schedule: Q01DX001 (ip), vehicle: water) was 114 % of control and 193 % of control. As to `N[C@@H](Cc1ccc(N(CCCl)CCCl)cc1)C(=O)O`, the T/C (dose: 3.0 mg/kg/injection, schedule: Q01DX009 (ip), vehicle: carboxymethylcellulose (CMC)) is 107 % of control and 197 % of control. Take `Cc1ccc(S(=O)(=O)N/N=C/C(=O)O)cc1`: the T/C (dose: 35.0 mg/kg/injection, schedule: Q01DX009 (ip), vehicle: saline with Tween-80) was 103 % of control and 185 % of control. For `O=CC(NC(=O)N(CCCl)N=O)C(O)C(O)C(O)CO` (stereo not given), the T/C by setting is: (dose: 2.0 mg/kg/injection, schedule: Q01DX009 (ip), vehicle: saline) 94 % of control and 172 % of control; (dose: 45.0 mg/kg/injection, schedule: Q01DX001 (ip), vehicle: saline) 88 % of control and 199 % of control.

Consider `CC1OC(OC2CC(O)(C(=O)CO)Cc3c(O)c4c(c(O)c32)C(=O)c2ccccc2C4=O)CC(N)C1O` (stereo not given), for which, where the note is “dose: 360.0 micrograms/kg/injection, schedule: Q04DX003 (ip), vehicle: water”, the T/C was 123 % of control and 157 % of control. Take `O=C1NC2(CCCCC2)C(=O)N1CCN(CCCl)CCCl`: the T/C runs as follows: under setting [1], 123 % of control and 158 % of control; (dose: 6.0 mg/kg/injection, schedule: Q01DX009 (ip), vehicle: saline) 112 % of control and 155 % of control. Consider `CC1CCC(NC(=O)N(CCCl)N=O)CC1` (stereo not given), for which the T/C (dose: 16.0 mg/kg/injection, schedule: Q01DX009 (ip), vehicle: saline) was 86 % of control and 176 % of control.

As to `CCN(CC)CCCC(C)Nc1c2ccc(Cl)cc2nc2ccc(OC)cc12` (stereo not given), the T/C (dose: 64.0 mg/kg/injection, schedule: Q01DX009 (ip), vehicle: saline with Tween-80) was 121 % of control and 171 % of control.

For `Cc1c2oc3c(C)ccc(C(=O)NC4C(=O)NC(C(C)C)C(=O)N5CCCC5C(=O)N(C)CC(=O)N(C)C(C(C)C)C(=O)OC4C)c3nc-2c(C(=O)NC2C(=O)NC(C(C)C)C(=O)N3CCC3C(=O)N(C)CC(=O)N(C)C(C(C)C)C(=O)OC2C)c(N)c1=O` (stereo not given) (I: TV[Aze][Sar][NMeV] / II: TVP[Sar][NMeV]; ester I:1-I:C, II:1-II:C; linker I:N-II:N via Actinocin(1to9); configuration not given here), the T/C is, setting by setting: (dose: 0.45 mg/kg/injection, schedule: Q04DX003 (ip), vehicle: saline + alcohol) 123 % of control and 168 % of control; (dose: 0.6 mg/kg/injection, schedule: Q04DX003 (ip), vehicle: saline + alcohol) 89 % of control and 164 % of control. `CCC1(O)CC2CN(CCc3c([nH]c4ccccc34)C(C(=O)OC)(c3cc4c(cc3OC)N(C)C3C(O)(C(=O)NCCSSCCNC(=O)C5(O)C(O)C6(CC)C=CCN7CCC8(c9cc(C%10(C(=O)OC)CC%11CN(CCc%12c%10[nH]c%10ccccc%12%10)CC(O)(CC)C%11)c(OC)cc9N(C)C58)C76)C(O)C5(CC)C=CCN6CCC43C65)C2)C1` (stereo not given): the T/C (dose: 389.0 micrograms/kg/injection, schedule: Q04DX003 (ip), vehicle: saline) was 118 % of control and 156 % of control. For `COC1=NCN=C2SC=C(N)N=C12`, the T/C (dose: 25.0 mg/kg/injection, schedule: Q01DX009 (ip), vehicle: saline) is on record as 94 % of control, 109 % of control, 200 % of control.

As to `COc1cccc2c1C(=O)c1c(O)c3c(c(O)c1C2=O)C[C@@](O)(C(C)=O)C[C@@H]3OC1CC(N(Cc2ccccc2)Cc2ccccc2)C(O)C(C)O1` (stereo not given in full), the T/C (dose: 50.0 mg/kg/injection, schedule: Q01DX001 (ip), vehicle: water) is 121 % of control and 168 % of control. For `CO[C@@]12[C@H](COC(N)=O)C3=C(C(=O)C(C)=C(N)C3=O)N1C[C@@H]1N[C@@H]12`, the T/C (dose: 0.9 mg/kg/injection, schedule: Q01DX009 (ip), vehicle: saline) is 97 % of control and 169 % of control; the T/C under setting [1] is reported as 42 % of control, 159 % of control, 166 % of control. As to `S=C(Nc1ccccc1)Nc1ccccc1S`, the T/C (dose: 400.0 mg/kg/injection, schedule: Q01DX009 (ip), vehicle: Klucel (hydroxypropylcellulose) (HPC)) is 93 % of control and 194 % of control. As to `CCCCCCCCCCCCCCCCCCCCCC(=O)Nc1ccn(C2OC(CO)C(O)C2O)c(=O)n1` (stereo not given), the T/C under setting [2] was 106 % of control and 155 % of control; the T/C under setting [3] is 119 % of control and 152 % of control. Turning to `COc1ccc2c(c1OC(C)=O)-c1cc(O)cc3c1C(C2)N(C(=O)CN(CCCl)CCCl)CC3` (stereo not given), where the note is “dose: 50.0 mg/kg/injection, schedule: Q04DX003 (ip), vehicle: DMSO”, the T/C is 98 % of control and 170 % of control. Regarding `COC(C(=O)C(O)C(C)O)C1Cc2cc3cc(OC4CC(OC(C)=O)C(OC5CC(O)C(OC)C(C)O5)C(C)O4)cc(O)c3c(O)c2C(=O)C1OC1CC(OC2CC(OC3CC(C)(O)C(OC(=O)C(C)C)C(C)O3)C(O)C(C)O2)C(O)C(C)O1` (stereo not given), the T/C (dose: 0.25 mg/kg/injection, schedule: Q01DX009 (ip), vehicle: saline) was 123 % of control, 151 % of control [sample A] and 167 % of control [sample B]. Turning to `COC1C(C)OC(OC2CC(C)(O)Cc3cc4c(c(O)c32)C(=O)c2c(O)cc3c(c2C4=O)OC2OC3(C)C(O)C(N(C)C)C2O)C(OC)C1(C)OC` (stereo not given), the T/C (dose: 3.24 mg/kg/injection, schedule: Q04DX003 (ip), vehicle: lactic acid) was 115 % of control and 191 % of control. Regarding `O=c1[nH]c(=O)n(C2CC(O)C(CO)O2)cc1F` (stereo not given), the T/C under setting [2] is 122 % of control and 176 % of control. Take `ClCC[N+]12CC[N+](CCCl)(CC1)C2`: under setting [3], the T/C is 121 % of control and 157 % of control.

For `O=P1(N(CCCl)CCCl)NCCCO1` (stereo not given), the T/C (dose: 100.0 mg/kg/injection, schedule: Q04DX003 (ip), vehicle: saline) was 99 % of control and 164 % of control.

Consider `CO[C@H]1C[C@](C)(O)Cc2cc3c(c(O)c21)C(=O)c1c(O)cc2c(c1C3=O)O[C@@H]1O[C@@]2(C)[C@H](O)[C@@H](N(C)C)[C@@H]1O`, for which the T/C (dose: 18.0 mg/kg/injection, schedule: Q04DX003 (ip), vehicle: lactic acid) is 115 % of control and 158 % of control. With `OC(CCl)CN1CC[N+]2(CC1)CC[N+]1(CCN(CC(O)CCl)CC1)CC2` (stereo not given), the T/C (dose: 150.0 mg/kg/injection, schedule: Q01DX009 (ip), vehicle: water) is 124 % of control and 154 % of control. With `O=P1(NCCCl)OCCCN1CCCl` (stereo not given), under “dose: 200.0 mg/kg/injection, schedule: Q02DX009 (ip), vehicle: saline”, the T/C is 90 % of control and 160 % of control. For the compound `C1CN1c1nc(N2CC2)nc(N2CC2)n1`, under “dose: 1.0 mg/kg/injection, schedule: Q01DX009 (ip), vehicle: saline with Tween-80”, the T/C is 109 % of control, 122 % of control, 152 % of control.
